In assay [1] the target is AT1R-Rluc (AngII type 1 receptor fused to Renilla luciferase) (human) (UniProt P30556). Description: FRET or BRET; ligand-induced BRET in live HEK293 cells co-expressing an Rluc-tagged receptor (donor) and Venus-Gαq or yPET-β-arrestin 2 (acceptor), without or with untagged PAR1; AngII, thrombin or both, dose-response 30 min at 37°C or real-time kinetics; antagonists irbesartan or SCH79797 in some; coelenterazine h 2.5 µM; PBS.

By UniProt entry, the sequences of proteins in these tests, tags left out.
UniProt P50148: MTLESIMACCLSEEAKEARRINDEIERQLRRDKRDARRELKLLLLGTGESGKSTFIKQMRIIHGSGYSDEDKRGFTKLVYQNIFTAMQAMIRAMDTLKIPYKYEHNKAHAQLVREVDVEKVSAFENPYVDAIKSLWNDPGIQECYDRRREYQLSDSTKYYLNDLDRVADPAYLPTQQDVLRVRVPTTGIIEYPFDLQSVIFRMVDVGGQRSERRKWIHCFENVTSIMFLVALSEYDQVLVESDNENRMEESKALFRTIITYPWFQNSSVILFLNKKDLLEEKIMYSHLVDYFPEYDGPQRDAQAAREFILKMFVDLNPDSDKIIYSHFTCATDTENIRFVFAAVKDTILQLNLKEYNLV

Assay [2] concerns the target HA-AT1R (human) (UniProt P30556). Description: co-IP; HEK293 lysates, equal Rluc input; anti-HA antibody and protein A agarose at 4°C; Rluc luminescence measured directly on the immunoprecipitates.
Assay [3] has as its target AT1R-Rluc (AngII type 1 receptor fused to Renilla luciferase) (human) (UniProt P30556). Description: FRET or BRET; BRET saturation in live HEK293 cells: constant AT1R-Rluc (25 ng plasmid) with increasing PAR1-Venus or Grb2-Venus (10-175 ng); net BRET plotted over Venus/Rluc ratio; room temperature; PBS.
In assay [4] the target is T1, PAR1-Rluc (protease-activated receptor 1 fused to Renilla luciferase) (human) (UniProt P25116).
T1 sequence: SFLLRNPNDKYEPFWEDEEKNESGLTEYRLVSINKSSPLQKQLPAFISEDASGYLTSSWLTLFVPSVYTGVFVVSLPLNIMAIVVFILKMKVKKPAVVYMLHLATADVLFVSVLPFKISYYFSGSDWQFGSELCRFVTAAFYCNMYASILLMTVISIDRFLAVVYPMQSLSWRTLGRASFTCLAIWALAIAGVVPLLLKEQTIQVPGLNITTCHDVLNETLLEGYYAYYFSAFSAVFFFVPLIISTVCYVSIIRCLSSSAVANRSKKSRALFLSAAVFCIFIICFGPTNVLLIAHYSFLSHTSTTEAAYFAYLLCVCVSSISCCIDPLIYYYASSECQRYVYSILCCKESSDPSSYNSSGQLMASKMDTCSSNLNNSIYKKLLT
Description: FRET or BRET; ligand-induced BRET in live HEK293 cells co-expressing an Rluc-tagged receptor (donor) and Venus-Gαq or yPET-β-arrestin 2 (acceptor), without or with untagged PAR1; AngII, thrombin or both, dose-response 30 min at 37°C or real-time kinetics; antagonists irbesartan or SCH79797 in some; coelenterazine h 2.5 µM; PBS.

These are yes or no findings as the source states them, for the method shown. In cells and extracts the contact can be indirect. Some binding calls cover weakened binding; strength is not graded here. For some of these results: Where a sequence is shown, tags or fusion partners need not be part of it.

With “yPET-β-arrestin 2 (from UniProt P32121 1-409)”, in assay [1], the binding result is listed as “binds”.
Regarding “AT1R-Rluc (AngII type 1 receptor fused to Renilla luciferase) (from UniProt P30556 1-359)”, the binding result in assay [2] is listed as “binds”.
For Grb2-Venus (from UniProt P62993 1-217), the binding entry in assay [3] is “no binding”.
With Grb2-Rluc (from UniProt P62993 1-217), the binding result in assay [2] is reported as “no binding”.
On to Venus-Gαq (from UniProt P50148 1-359), for which, in assay [4], the binding entry is “binds”.

B1: PAR1-Venus (receptor, UniProt P25116 42-425)
chain: T1 sequence
As to B1, the binding entry in assay [3] was “binds”.

B2: PAR1-Rluc (protease-activated receptor 1 fused to Renilla luciferase) (receptor, UniProt P25116 42-425)
chain: T1 sequence
As to B2, the binding entry in assay [2] is recorded as “binds”.

(Values after publication PMC7468457.)
